# The list shows a part of the results.
# B1: Epa22 (Candida glabrata) (protein)
# chain: MGSSHHHHHHSSGLVPRGSHMKRALSSQNPFGYPIGCSPQSTNVIPGLTMELYSYPIVSGTPPNCYDASYVDPEYPRTGYLKRKMIGKSTGVTGSLNYKFSVEKACMVKYGNLPAGYNYNEPLTVSNFTMLLYGYFKPQTSGIHTFFVNADDLLYINFGAGNAFDCCKREDSKFKLGEYVAYDIWHVDSSKNKVSLNLEKDVYYPIRMFFNNIGKDSSLDLSFSVNGAVEHITDFSGYLYSVPDQPDACPAPIGYDTTCK
# What was measured:
# Assay in all cases: glycan array binding signal (z-score within array); higher = stronger binding
# Conditions in all cases: glycan notation: IUPAC condensed, linker removed
# [1] = molecular target: Neu5Ac(a2-6)Gal(b1-4)GlcNAc(b1-2)Man(a1-3)[Neu5Ac(a2-3)Gal(b1-4)GlcNAc(b1-2)Man(a1-6)]Man(b1-4)GlcNAc(b1-4)GlcNAc
# How it was run: (§1)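 The binding signal is a Z-score computed within each array. Data were drawn from 3228 arrays in the Consortium for Functional Glycomics database, restricted to those with a known protein sequence. Scores were averaged over arrays of the same protein sequence at different concentrations or buffers, and over linkers, and negative values can be taken as non-binding.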
# [2] = molecular target: Neu5Ac(a2-6)Gal(b1-4)GlcNAc(b1-2)Man(a1-3)[Neu5Ac(a2-6)Gal(b1-4)GlcNAc(b1-2)Man(a1-6)]Man(b1-4)GlcNAc(b1-4)GlcNAc
# How it was run: as §1
# [3] = molecular target: Neu5Ac(a2-6)Gal(b1-4)GlcNAc(b1-2)Man(a1-3)[Neu5Ac(a2-6)Gal(b1-4)GlcNAc(b1-2)Man(a1-6)]Man(b1-4)GlcNAc(b1-4)[Fuc(a1-6)]GlcNAc
# How it was run: as §1
# [4] = molecular target: Neu5Ac(a2-6)Gal(b1-4)GlcNAc(b1-2)Man(a1-6)Man(b1-4)GlcNAc(b1-4)GlcNAc
# How it was run: as §1
# [5] = molecular target: Neu5Ac(a2-6)Gal(b1-4)GlcNAc(b1-2)Man(a1-6)[Gal(b1-4)GlcNAc(b1-2)Man(a1-3)]Man(b1-4)GlcNAc(b1-4)GlcNAc
# How it was run: as §1
# [6] = molecular target: Neu5Ac(a2-6)Gal(b1-4)GlcNAc(b1-2)Man(a1-6)[GlcNAc(b1-2)Man(a1-3)]Man(b1-4)GlcNAc(b1-4)GlcNAc
# How it was run: as §1
# [7] = molecular target: Neu5Ac(a2-6)Gal(b1-4)GlcNAc(b1-2)Man(a1-6)[Man(a1-3)]Man(b1-4)GlcNAc(b1-4)GlcNAc
# How it was run: as §1
# [8] = molecular target: Neu5Ac(a2-6)Gal(b1-4)GlcNAc(b1-2)[Neu5Ac(a2-6)Gal(b1-4)GlcNAc(b1-4)]Man(a1-3)[GlcNAc(b1-4)][Neu5Ac(a2-6)Gal(b1-4)GlcNAc(b1-2)[Neu5Ac(a2-6)Gal(b1-4)GlcNAc(b1-6)]Man(a1-6)]Man(b1-4)GlcNAc(b1-4)GlcNAc
# How it was run: as §1
# [9] = molecular target: Neu5Ac(a2-6)Gal(b1-4)GlcNAc(b1-2)[Neu5Ac(a2-6)Gal(b1-4)GlcNAc(b1-4)]Man(a1-3)[GlcNAc(b1-4)][Neu5Ac(a2-6)Gal(b1-4)GlcNAc(b1-4)Man(a1-6)]Man(b1-4)GlcNAc(b1-4)GlcNAc
# How it was run: as §1
# [10] = molecular target: Neu5Ac(a2-6)Gal(b1-4)GlcNAc(b1-2)[Neu5Ac(a2-6)Gal(b1-4)GlcNAc(b1-6)]Man(a1-6)[Neu5Ac(a2-6)Gal(b1-4)GlcNAc(b1-2)Man(a1-3)][GlcNAc(b1-4)]Man(b1-4)GlcNAc(b1-4)GlcNAc
# How it was run: as §1
# [11] = molecular target: Neu5Ac(a2-6)Gal(b1-4)GlcNAc(b1-3)Gal(b1-3)GlcNAc
# How it was run: as §1
# [12] = molecular target: Neu5Ac(a2-6)Gal(b1-4)GlcNAc(b1-3)Gal(b1-4)GlcNAc
# How it was run: as §1
# [13] = molecular target: Neu5Ac(a2-6)Gal(b1-4)GlcNAc(b1-3)Gal(b1-4)GlcNAc(b1-2)Man(a1-3)[Neu5Ac(a2-6)Gal(b1-4)GlcNAc(b1-3)Gal(b1-4)GlcNAc(b1-2)Man(a1-6)]GalNAc
# How it was run: as §1
# [14] = molecular target: Neu5Ac(a2-6)Gal(b1-4)GlcNAc(b1-3)Gal(b1-4)GlcNAc(b1-3)Gal(b1-4)GlcNAc
# How it was run: as §1
# [15] = molecular target: Neu5Ac(a2-6)Gal(b1-4)GlcNAc(b1-3)Gal(b1-4)GlcNAc(b1-3)Gal(b1-4)GlcNAc(b1-2)Man(a1-3)[Neu5Ac(a2-6)Gal(b1-4)GlcNAc(b1-3)Gal(b1-4)GlcNAc(b1-3)Gal(b1-4)GlcNAc(b1-2)Man(a1-6)]GalNAc
# How it was run: as §1
# [16] = molecular target: Neu5Ac(a2-6)Gal(b1-4)GlcNAc(b1-3)Gal(b1-4)GlcNAc(b1-3)GalNAc
# How it was run: as §1
# [17] = molecular target: Neu5Ac(a2-6)Gal(b1-4)GlcNAc(b1-3)Gal(b1-4)GlcNAc(b1-3)[Neu5Ac(a2-6)Gal(b1-4)GlcNAc(b1-3)Gal(b1-4)GlcNAc(b1-6)]GalNAc
# How it was run: as §1
# [18] = molecular target: Neu5Ac(a2-6)Gal(b1-4)GlcNAc(b1-3)Gal(b1-4)GlcNAc(b1-6)[Gal(b1-3)]GalNAc
# How it was run: as §1
# [19] = molecular target: Neu5Ac(a2-6)Gal(b1-4)GlcNAc(b1-3)Gal(b1-4)[Fuc(a1-3)]GlcNAc(b1-3)Gal(b1-4)[Fuc(a1-3)]GlcNAc
# How it was run: as §1
# [20] = molecular target: Neu5Ac(a2-6)Gal(b1-4)GlcNAc(b1-3)GalNAc
# How it was run: as §1
# [21] = molecular target: Neu5Ac(a2-6)Gal(b1-4)GlcNAc(b1-3)[Neu5Ac(a2-6)Gal(b1-4)GlcNAc(b1-6)]GalNAc
# How it was run: as §1
# [22] = molecular target: Neu5Ac(a2-6)Gal(b1-4)GlcNAc(b1-6)GalNAc
# How it was run: as §1
# [23] = molecular target: Neu5Ac(a2-6)Gal(b1-4)GlcNAc(b1-6)[Gal(b1-3)GlcNAc(b1-3)]Gal(b1-4)Glc
# How it was run: as §1
# [24] = molecular target: Neu5Ac(a2-6)Gal(b1-4)GlcNAc(b1-6)[Gal(b1-3)]GalNAc
# How it was run: as §1
# [25] = molecular target: Neu5Ac(a2-6)Gal(b1-4)GlcNAc6S
# How it was run: as §1
# [26] = molecular target: Neu5Ac(a2-6)GalNAc
# How it was run: as §1
# [27] = molecular target: Neu5Ac(a2-6)GalNAc(b1-4)GlcNAc
# How it was run: as §1
# [28] = molecular target: Neu5Ac(a2-6)GalNAc(b1-4)GlcNAc6S
# How it was run: as §1
# [29] = molecular target: Neu5Ac(a2-6)GlcNAc(b1-4)GlcNAc
# How it was run: as §1
# [30] = molecular target: Neu5Ac(a2-6)GlcNAc(b1-4)GlcNAc(b1-4)GlcNAc
# How it was run: as §1
binder,measurement,setting,value
B1,glycan array binding signal (z-score),[1],-0.328
same,glycan array binding signal (z-score),[2],-0.37
same,glycan array binding signal (z-score),[3],-0.359
same,glycan array binding signal (z-score),[4],-0.426
same,glycan array binding signal (z-score),[5],-0.38
same,glycan array binding signal (z-score),[6],-0.338
same,glycan array binding signal (z-score),[7],-0.396
same,glycan array binding signal (z-score),[8],-0.37
same,glycan array binding signal (z-score),[9],-0.386
same,glycan array binding signal (z-score),[10],-0.404
same,glycan array binding signal (z-score),[11],-0.39
same,glycan array binding signal (z-score),[12],-0.293
same,glycan array binding signal (z-score),[13],-0.345
same,glycan array binding signal (z-score),[14],-0.398
same,glycan array binding signal (z-score),[15],-0.143
same,glycan array binding signal (z-score),[16],-0.322
same,glycan array binding signal (z-score),[17],-0.304
same,glycan array binding signal (z-score),[18],-0.114
same,glycan array binding signal (z-score),[19],-0.356
same,glycan array binding signal (z-score),[20],-0.308
same,glycan array binding signal (z-score),[21],-0.246
same,glycan array binding signal (z-score),[22],-0.347
same,glycan array binding signal (z-score),[23],-0.175
same,glycan array binding signal (z-score),[24],0.338
same,glycan array binding signal (z-score),[25],0.45
same,glycan array binding signal (z-score),[26],-0.41
same,glycan array binding signal (z-score),[27],-0.397
same,glycan array binding signal (z-score),[28],-0.331
same,glycan array binding signal (z-score),[29],-0.329
same,glycan array binding signal (z-score),[30],-0.37

# From the supplement of paper PMC8728848
